# Results as given in the supplement of paper PMC12217912.
# The other results are listed elsewhere or left out. The full chains were built here from the parent and the listed change. Inactive controls read about 0.05.
# B1: TEV protease; numbered along this chain (parent)
# chain: MGESLFKGPRDYNPISSSICHLTNESDGHTTSLYGIGFGPFIITNKHLFRRNNGTLVVQSLHGVFKVKDTTTLQQHLVDGRDMIIIRMPKDFPPFPQKLKFREPQREERICLVTTNFQTKSMSSMVSDTSCTFPSGDGIFWKHWIQTKDGQCGSPLVSTRDGFIVGIHSASNFTNTNNYFTSVPKNFMELLTNQEAQQWVSGWRLNADSVLWGGHKVFMVKPEEPFQPVKEATQL
# Variants of: B1
# Experiment: raw area under fraction-flipped curve 0-4 h after induction (AUC4h, not background-subtracted), DNA-recorder readout of cleavage of the substrate (dimensionless); higher = more cleavage of the substrate by the protease variant
# Conditions: temperature: 34 °C; time window: 0-4 h after rhamnose induction
# Procedure: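 In vivo DNA recorder in E. coli TOP10(DE3) ΔrhaA at 34 °C. Each TEVp single-site mutant (parent TEVp 0) is paired with a single-site variant of the 7-mer TEVs (canonical ENLYFQ|S). The substrate sits between flexible linkers in a Bxb1-sfGFP-TEVs-SsrA fusion, so cleavage stabilises Bxb1 and speeds flipping of a recombination array, read by NGS. The value is the raw area under the fraction-flipped curve over 0-4 h after rhamnose induction (AUC4h), with ≥20 reads per time point. It is not background-subtracted; inactive controls average about 0.047.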
# 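Note: Bxb1 expression induced with 0.2% (w/v) L-rhamnose at OD600 near 0.5, cultures sampled hourly, flipped fraction per protease–substrate barcode pair counted by paired-end Illumina sequencing.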
Variant,area with substrate CNLYFQS,area with substrate DNLYFQS,area with substrate GNLYFQS,area with substrate KNLYFQS,area with substrate LNLYFQS,area with substrate MNLYFQS,area with substrate PNLYFQS,area with substrate SNLYFQS,area with substrate WNLYFQS,area with substrate FNLYFQS,area with substrate HNLYFQS,area with substrate VNLYFQS,area with substrate YNLYFQS,area with substrate INLYFQS,area with substrate QNLYFQS,area with substrate RNLYFQS,area with substrate TNLYFQS,area with substrate NNLYFQS
MGESLQKGPRDYNPISSSICHLTNESDGHTTSLYGIGFGPFIITNKHLFRRNNGTLVVQSLHGVFKVKDTTTLQQHLVDGRDMIIIRMPKDFPPFPQKLKFREPQREERICLVTTNFQTKSMSSMVSDTSCTFPSGDGIFWKHWIQTKDGQCGSPLVSTRDGFIVGIHSASNFTNTNNYFTSVPKNFMELLTNQEAQQWVSGWRLNADSVLWGGHKVFMVKPEEPFQPVKEATQL [F6Q],0.0684,0.0629,0.076,0.0814,0.0698,0.0715,0.0668,0.062,0.0611,–,–,–,–,–,–,–,–,–
MGESLYKGPRDYNPISSSICHLTNESDGHTTSLYGIGFGPFIITNKHLFRRNNGTLVVQSLHGVFKVKDTTTLQQHLVDGRDMIIIRMPKDFPPFPQKLKFREPQREERICLVTTNFQTKSMSSMVSDTSCTFPSGDGIFWKHWIQTKDGQCGSPLVSTRDGFIVGIHSASNFTNTNNYFTSVPKNFMELLTNQEAQQWVSGWRLNADSVLWGGHKVFMVKPEEPFQPVKEATQL [F6Y],0.063,0.0825,–,0.063,–,–,0.0756,–,0.0449,0.0537,0.044,0.0608,0.0602,–,–,–,–,–
MGESLMKGPRDYNPISSSICHLTNESDGHTTSLYGIGFGPFIITNKHLFRRNNGTLVVQSLHGVFKVKDTTTLQQHLVDGRDMIIIRMPKDFPPFPQKLKFREPQREERICLVTTNFQTKSMSSMVSDTSCTFPSGDGIFWKHWIQTKDGQCGSPLVSTRDGFIVGIHSASNFTNTNNYFTSVPKNFMELLTNQEAQQWVSGWRLNADSVLWGGHKVFMVKPEEPFQPVKEATQL [F6M],0.0643,0.0751,0.0638,–,0.0601,–,0.0655,0.0578,0.0535,0.0643,0.0914,0.0666,0.0827,0.067,0.0676,–,–,–
MGESLFKGPRDGNPISSSICHLTNESDGHTTSLYGIGFGPFIITNKHLFRRNNGTLVVQSLHGVFKVKDTTTLQQHLVDGRDMIIIRMPKDFPPFPQKLKFREPQREERICLVTTNFQTKSMSSMVSDTSCTFPSGDGIFWKHWIQTKDGQCGSPLVSTRDGFIVGIHSASNFTNTNNYFTSVPKNFMELLTNQEAQQWVSGWRLNADSVLWGGHKVFMVKPEEPFQPVKEATQL [Y12G],0.0435,0.078,–,0.0742,0.0589,–,0.059,0.0751,0.0623,0.0693,0.0773,0.0678,0.0558,0.0651,0.0709,0.0611,0.0628,–
MGESLFKGPRYYNPISSSICHLTNESDGHTTSLYGIGFGPFIITNKHLFRRNNGTLVVQSLHGVFKVKDTTTLQQHLVDGRDMIIIRMPKDFPPFPQKLKFREPQREERICLVTTNFQTKSMSSMVSDTSCTFPSGDGIFWKHWIQTKDGQCGSPLVSTRDGFIVGIHSASNFTNTNNYFTSVPKNFMELLTNQEAQQWVSGWRLNADSVLWGGHKVFMVKPEEPFQPVKEATQL [D11Y],0.0615,0.0795,0.0799,0.0746,0.0638,0.0696,0.0652,0.0587,0.0586,0.0672,0.0807,0.0708,0.059,0.094,0.0926,0.0491,0.0699,–
MGESLFKGPRNYNPISSSICHLTNESDGHTTSLYGIGFGPFIITNKHLFRRNNGTLVVQSLHGVFKVKDTTTLQQHLVDGRDMIIIRMPKDFPPFPQKLKFREPQREERICLVTTNFQTKSMSSMVSDTSCTFPSGDGIFWKHWIQTKDGQCGSPLVSTRDGFIVGIHSASNFTNTNNYFTSVPKNFMELLTNQEAQQWVSGWRLNADSVLWGGHKVFMVKPEEPFQPVKEATQL [D11N],0.0702,0.074,–,0.0654,0.0688,–,–,0.0424,0.0605,0.0716,0.0686,0.0753,–,0.086,0.0316,–,0.0798,–
MGESLFKGPRGYNPISSSICHLTNESDGHTTSLYGIGFGPFIITNKHLFRRNNGTLVVQSLHGVFKVKDTTTLQQHLVDGRDMIIIRMPKDFPPFPQKLKFREPQREERICLVTTNFQTKSMSSMVSDTSCTFPSGDGIFWKHWIQTKDGQCGSPLVSTRDGFIVGIHSASNFTNTNNYFTSVPKNFMELLTNQEAQQWVSGWRLNADSVLWGGHKVFMVKPEEPFQPVKEATQL [D11G],0.0913,0.0895,–,0.0698,0.0579,0.0694,0.0779,–,0.071,–,0.0666,0.0638,0.066,–,–,0.0566,0.0681,0.0657
MGESLFKGPRHYNPISSSICHLTNESDGHTTSLYGIGFGPFIITNKHLFRRNNGTLVVQSLHGVFKVKDTTTLQQHLVDGRDMIIIRMPKDFPPFPQKLKFREPQREERICLVTTNFQTKSMSSMVSDTSCTFPSGDGIFWKHWIQTKDGQCGSPLVSTRDGFIVGIHSASNFTNTNNYFTSVPKNFMELLTNQEAQQWVSGWRLNADSVLWGGHKVFMVKPEEPFQPVKEATQL [D11H],0.0999,0.0568,–,0.0687,–,0.0619,0.0854,0.0574,0.0621,0.0579,0.0762,–,0.0643,–,–,0.0634,0.0458,–
MGESLFKGPRDYNDISSSICHLTNESDGHTTSLYGIGFGPFIITNKHLFRRNNGTLVVQSLHGVFKVKDTTTLQQHLVDGRDMIIIRMPKDFPPFPQKLKFREPQREERICLVTTNFQTKSMSSMVSDTSCTFPSGDGIFWKHWIQTKDGQCGSPLVSTRDGFIVGIHSASNFTNTNNYFTSVPKNFMELLTNQEAQQWVSGWRLNADSVLWGGHKVFMVKPEEPFQPVKEATQL [P14D],0.0895,0.0765,0.0633,0.0642,0.0108,–,0.033,0.0704,0.0503,0.0618,0.0418,–,0.0641,0.0596,–,–,0.0677,–
